# Where a name gives a salt, the structure may show the parent alone. Whole data set: some 2,000 compounds, median “fractional viability relative to vehicle” near 0.92, cut for the lowest 2% near 0.11. The list shows a part of the results.
# System: TYKNU
# Test: fractional viability relative to vehicle; TYKNU is a high-grade serous ovarian cancer line; higher = less growth inhibition
# Conditions: 72 h, genotype: OPA1 knockout (sgOPA1 #2)
# Summary of the method: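 Drug treatment lasted 72 h, with cells grown at 37 °C in 5% CO2 in RPMI 1640 supplemented with 10% FBS. Beforehand, TYKNU control cells or their lentiCRISPRv2 knockout derivatives had been seeded at 500 cells per well into drug-stamped 384-well plates carrying a ~2100-compound library at 2 or 10 μM, in duplicate. Viability came from Cell Titer Glo luminescence, with averaged duplicate treatment wells normalised to duplicate control wells in the same plate position.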
Compound,fractional viability (2uM),fractional viability (10uM)
CSc1nc2cc(Cl)c(Oc3cccc(Cl)c3Cl)cc2[nH]1 [Triclabendazole],1.05,0.871
CCCCCCCCCCCCCCCCn1cc[n+](Cc2ccccc2)c1C,0.363,0.0434
Cn1cnc2c(F)c(Nc3ccc(Br)cc3F)c(C(=O)NOCCO)cc21,0.631,0.428
C#Cc1cccc(Nc2ncnc3cc(OCCOC)c(OCCO)cc23)c1,1.13,0.833
COc1cc2nc(N3CCCC3)nc(NCCCCCN3CCCC3)c2cc1OC,0.679,0.0949
NC(=O)c1cnccn1 [Pyrazinamide],1.05,1.03
Nc1nc(N)c(N=O)c(OCC2CCCCC2)n1,0.974,0.663
CC(C)C[C@H](NC(=O)[C@H](Cc1ccccc1)C[C@@H](O)[C@H](Cc1ccccc1)NC(=O)OC(C)(C)C)C(=O)N[C@@H](Cc1ccccc1)C(N)=O,0.74,0.782
CC(=O)O[C@H]1C(=O)[C@@]2(C)[C@H]([C@H](OC(=O)c3ccccc3)[C@]3(O)C[C@H](OC(=O)[C@H](O)[C@@H](NC(=O)c4ccccc4)c4ccccc4)C(C)=C1C3(C)C)[C@]1(OC(C)=O)CO[C@@H]1C[C@@H]2O [Paclitaxel],0.717,0.773
NC(=O)c1cccc(-c2cccc(OC(=O)NC3CCCCC3)c2)c1,0.981,0.995
CN1CCC(Nc2nc(Nc3ccc(Oc4ccccc4)cc3)c3c(=O)[nH]cc(Br)c3n2)CC1,0.289,0.0528
CCCN(CCC)CCc1cccc2c1CC(=O)N2 [Ropinirole HCl],1.04,1.07
COc1ccc2cc([C@H](C)C(=O)O)ccc2c1 [Naproxen],1.11,0.908
N#Cc1cc(CN2CCC(Nc3ncnc4sc(Cl)cc34)CC2)ccc1F,0.83,0.84
C[C@]12CCC(=O)C=C1[C@@H]1C[C@@H]1[C@H]1[C@@H]3[C@@H]4C[C@@H]4[C@@]4(CCC(=O)O4)[C@@]3(C)CC[C@@H]12 [Drospirenone],1.1,1.05
OCCn1cc(-c2cnc3nnn(Cc4ccc5ncccc5c4)c3n2)cn1,1.09,1.14
Cc1ncc([N+](=O)[O-])n1CC(C)O (stereo unspecified) [Secnidazole],1.26,1.26
Cc1ccc(C(=O)Nc2ccc(CN3CCN(C)CC3)c(C(F)(F)F)c2)cc1C#Cc1cnc2[nH]ncc2c1,0.589,0.115
Oc1ccc(-c2nc(-c3ccc(F)cc3)c(-c3ccncc3)[nH]2)cc1,1.48,1.09
O=C(Nc1ccc(S(=O)(=O)Nc2ccccc2Cl)c(Cl)c1)c1ccccn1,0.907,0.714
O=C(NC[C@H](O)CO)c1ccncc1Nc1ccc(I)cc1F,0.542,0.514
Cc1ccc(-n2nc(C(C)(C)C)cc2NC(=O)NCc2cc(F)ccc2Oc2ccc3c(cnn3CCO)c2)cc1 [Pexmetinib (ARRY-614)],0.722,0.759
CC1(C)S[C@@H]2[C@H](NC(=O)[C@H](N)c3ccccc3)C(=O)N2[C@H]1C(=O)O [Ampicillin Trihydrate],1,0.972

Compound,fractional viability (2uM),fractional viability (10uM)
CC1(C)S[C@@H]2[C@H](NC(=O)[C@H](N)c3ccccc3)C(=O)N2[C@H]1C(=O)O [Ampicillin sodium],0.875,0.926
O=C(O)c1cc(=O)[nH]c(=O)[nH]1 [Orotic acid (6-Carboxyuracil)],1.07,1.13
Cc1ccccc1C(C(=O)NC1CCCCC1)N(C(=O)Cn1ccnc1C)c1cccc(F)c1 (stereo unspecified),0.97,0.888
Nc1c(CC(=O)O)cccc1C(=O)c1ccc(Br)cc1 [Bromfenac Sodium],0.899,0.953
COc1cccc(Nc2c(C(N)=O)cnc3c(C)cc(S(=O)(=O)c4cccc(C(=O)N(C)C)c4)cc23)c1,0.745,0.751
C[C@H]1O[C@@H](n2cc(F)c(=O)[nH]c2=O)[C@H](O)[C@@H]1O [Doxifluridine],1.5,1.24
CC(C)(C)c1nc(-c2cccc(NS(=O)(=O)c3c(F)cccc3F)c2F)c(-c2ccnc(N)n2)s1,0.709,0.749
O=c1c(-c2ccc(O)cc2)coc2cc(O)ccc12 [Daidzein],0.931,0.846
CC1(C)CC[C@]2(C(=O)O)CC[C@]3(C)C(=CC[C@@H]4[C@@]5(C)CC[C@H](O)C(C)(C)[C@@H]5CC[C@]43C)[C@@H]2C1 [Oleanolic Acid],0.917,0.973
O=C(O)CCCCC(CCSCc1ccccc1)SCc1ccccc1 (stereo unspecified),1.23,0.919
O=C(Oc1ccccc1C(=O)O)c1ccccc1O [Sasapyrine],1.16,0.903
COc1c(C)c2c(c(O)c1C/C=C(\C)CCC(=O)O)C(=O)OC2 [Mycophenolic acid],0.66,0.536
CS(=O)(=O)c1ccc(-c2cnc(N)c(C(=O)Nc3ccccc3)n2)cc1,0.833,0.688
CN(C)CCOc1ccc(-c2nc(-c3ccncc3)c(-c3ccc4c(c3)CC/C4=N\O)[nH]2)cc1,0.833,0.0595
C[C@H](Cc1cc2c(c(C(N)=O)c1)N(CCCO)CC2)NCCOc1ccccc1OCC(F)(F)F [Silodosin],1.06,0.995
C/C(=C\C(=O)Nc1ccccc1C(=O)O)c1ccc2ccccc2c1,1.15,1.05
O=C(c1ccc(/C=C/c2n[nH]c3ccccc23)cc1)N1CCNCC1,1.21,1.07
Cc1ccc(-n2sc(=O)n(Cc3ccc(F)cc3)c2=O)cc1,0.801,0.457
Cc1cc(Cl)ccc1OCCCC(=O)NO [Droxinostat],1.07,0.965
O=C(NCCN1CCOCC1)c1ccc(Cl)cc1,0.892,0.854
COc1ccc2c(c1)c(CC(=O)N1CCOCC1)c(C)n2C(=O)c1ccc(Cl)cc1,0.923,0.939
OC(c1cc(C(F)(F)F)nc2c(C(F)(F)F)cccc12)C1CCCCN1 (stereo unspecified) [Mefloquine HCl],1.17,0.2
CC[C@H]1OC(=O)C[C@@H](O)[C@H](C)[C@@H](O[C@@H]2O[C@H](C)[C@@H](O)[C@H](N(C)C)[C@H]2O)[C@@H](CCN2C[C@H](C)C[C@H](C)C2)C[C@@H](C)C(=O)/C=C/C(C)=C/[C@@H]1CO[C@@H]1O[C@H](C)[C@@H](O)[C@@H](OC)[C@H]1OC [Tilmicosin],1.49,1.66

Compound,fractional viability (2uM),fractional viability (10uM)
CCc1c(O)cc(O)c(C(=O)c2ccc(OCCN3CCOCC3)c(OC)c2)c1CC(=O)N(CCOC)CCOC,0.791,0.482
CNCCCC12CCC(c3ccccc31)c1ccccc12 [Maprotiline HCl],1.03,0.874
Cc1coc2c1C(=O)C(=O)c1c-2ccc2c1CCCC2(C)C [Tanshinone IIA],0.599,0.327
CN(C)Cc1cccc(N=C(c2ccccc2)c2c(O)[nH]c3cc(C(=O)N(C)C)ccc23)c1,1.13,0.78
C[C@@H](O)[C@H]1C(=O)N2C(C(=O)O)=C(S[C@@H]3CN[C@H](C(=O)N(C)C)C3)[C@H](C)[C@H]12 [Meropenem],0.979,0.992
Cn1nnc(-c2ccc3c(c2)[nH]c2nc(Cc4ccccc4)nc(NC4CCC(N)CC4)c23)n1 (stereo unspecified),1.01,0.765
CC(=O)O[C@H]1C[C@@H]2CC[C@@H]3[C@H](CC[C@@]4(C)[C@H]3C[C@H]([N+]3(C)CCCCC3)[C@@H]4OC(C)=O)[C@@]2(C)C[C@@H]1N1CCCCC1 [Vecuronium Bromide],0.956,1.15
C[C@]12C=CC(=O)C=C1CC[C@H]1[C@@H]3C[C@@H](O)[C@](O)(C(=O)CO)[C@@]3(C)C[C@H](O)[C@@]12F [Triamcinolone],1.25,1.11
N#Cc1ccc(COC[C@H]2O[C@@H](n3c(NCc4ccc(Cl)c(Cl)c4)nc4c(N)ncnc43)[C@H](O)[C@@H]2O)cc1,0.698,0.364
CC1(C)O[C@@H]2C[C@H]3[C@@H]4CCC5=CC(=O)CC[C@]5(C)[C@@]4(F)[C@@H](O)C[C@]3(C)[C@]2(C(=O)CCl)O1 [Halcinonide],1.02,0.893
C[C@@H]1O[C@@H](OC[C@H]2O[C@@H](Oc3c(-c4ccc(OCCO)c(OCCO)c4)oc4cc(OCCO)cc(O)c4c3=O)[C@H](O)[C@@H](O)[C@@H]2O)[C@H](O)[C@H](O)[C@H]1O [Troxerutin],0.986,1
CCN(CC)C(=O)/C(C#N)=C/c1cc(O)c(O)c([N+](=O)[O-])c1 [Entacapone],0.795,1.4
COc1cccc2cc(-c3nc([C@H]4CC[C@H](C(=O)O)CC4)n4ncnc(N)c34)[nH]c12,0.597,0.36
O=C1CCC[C@@H]2[C@H]3CCC[N+]4([O-])CCC[C@@H](CN12)[C@@H]34 (stereo partly specified) [Oxymatrine],0.991,0.937
CCN(CC)CCOC(=O)c1ccc(N)cc1 [Procaine HCl],1.02,1.12
Clc1ccc(C(Cn2ccnc2)OCc2ccc(Sc3ccccc3)cc2)c(Cl)c1 (stereo unspecified) [Fenticonazole Nitrate],0.933,0.911
CC[C@H](C)C(=O)O[C@H]1C[C@@H](C)C=C2C=C[C@H](C)[C@H](CC[C@@H]3C[C@@H](O)CC(=O)O3)[C@H]21 [Lovastatin],0.879,0.644
COc1cc(C2Oc3cc([C@H]4Oc5cc(O)cc(O)c5C(=O)[C@@H]4O)ccc3OC2CO)ccc1O (stereo partly specified) [Silibinin],1.18,1.15
COc1cc(C2Oc3cc([C@H]4Oc5cc(O)cc(O)c5C(=O)[C@@H]4O)ccc3OC2CO)ccc1O (stereo partly specified) [Silymarin],1.1,1.07
O=c1cc(-c2ccccc2)oc2cc(O)c(O)c(O)c12 [Baicalein],0.842,1.05
CC(=O)N[C@@H](CS)C(=O)O [Acetylcysteine],1.02,1.18
C[C@]1(c2nc3c(C(N)=O)cccc3[nH]2)CCCN1 [Veliparib (ABT-888)],1.12,1.12
